Test results published in the supplement of paper PMC4723716.
In all, about 3,600 compounds were measured (“viability index relative to DMSO control”: median about 0.81, lowest 2% from about 0.13 on). This is one part of the list.

System: Plasmodium falciparum NF54 stage V gametocytes
Assay: viability index relative to DMSO control (fraction); higher = less gametocyte killing
Settings: 1.25 µM, incubation time: 72 h
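Further: 384-well serum-free SaLSSA: MitoTracker Red CMXRos staining with saponin lysis, high-content imaging, treated-well particle count divided by plate-mean count of DMSO wells.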

Structure (SMILES) | viability index
CCCCCOC(=O)C1=C(C)Nc2ncnn2C1c1cccc([N+](=O)[O-])c1 (stereo unspecified) | 0.783
COc1ccccc1N(CC(=O)N1CCCCC1)S(=O)(=O)c1ccccc1 | 1.08
CCOc1ccc(CCN2C(=S)N(c3cccc(C(F)(F)F)c3)C(=O)C2CC(=O)Nc2ccc(C(=O)OC)cc2)cc1OCC (stereo unspecified) | 0.582
Fc1ccccc1Nc1nc(NCc2ccccc2)c2ccccc2n1 | 1.04
O=C1NN(c2ccccc2)C(=O)C1=C1C(=O)N(Cc2cccc3ccccc23)c2ccccc21 | 0.811
COC(=O)C1=C(C(=O)OC)SC(=C2C(=S)C(C)(C)Nc3cc(C)ccc32)S1 | 1.15
COC(=O)c1c(-c2c(Cl)cccc2Cl)noc1C=CNc1ccccc1 | 0.834
Cc1cc(C)cc(NC2=C(c3ccccc3)C(=O)c3ccccc32)c1 | 0.807
COc1cc(C2C(C(=O)OCCc3ccccc3)=C(C)NC3=C2C(=O)CC(c2ccc(Cl)cc2)C3)ccc1OCc1ccccc1 (stereo unspecified) | 0.849
COc1ccc(NC(=O)C2c3ccccc3C(=O)N(C3CCCC3)C2c2cccs2)cc1Cl (stereo unspecified) | 0.313
Cc1c(C(=O)N2CCN(c3cccc(Cl)c3)CC2)sc2ncnc(N(C)c3ccccc3)c12 | 0.734
COc1cccc(-c2cc(C(=O)Nc3cc(Cl)ccc3O)on2)c1 | 0.936
CCOc1ccc(-c2nc(NC(=O)Cc3cccc(OC)c3)sc2C)cc1 | 0.896
Cc1oc2c(c1C(=O)NCc1cccnc1)C(=O)c1ccccc1C2=O | 0.231
O=C(Nc1ccc(Oc2cccnc2)cc1)C1CCN(Cc2cc3ccccc3o2)CC1 | 0.894
COc1ccc(OC)c(-c2ccc(O)c(CN(C)CC(O)c3ccccc3)c2)c1 (stereo unspecified) | 0.538
O=C(NN=Cc1c(O)ccc2ccccc12)c1cccnc1 | 0.866
COc1ccc(C(C)=O)cc1N1C(=O)C2C(C1=O)C1(c3ccccc3)C(=O)C2(c2ccccc2)C(c2ccc(C)cc2)=C1c1ccc(C)cc1 (stereo unspecified) | 1.07
COc1ccc(CN(Cc2cc3cccc(C)c3nc2N2CCCC(O)C2)C(=O)c2ccc(OC)c(OC)c2)cc1 (stereo unspecified) | 1.12
S=C(NN=CC=NNC(=S)Nc1ccccc1)Nc1ccccc1 | 0.104
CSc1cccc([C@@H]2C[C@H]3CN(c4ccccc4)C(=O)[C@]34CCCN24)c1 | 0.75
COCCOC(=O)C1=C(C)NC2=C(C(=O)CC(c3ccc(OC)c(OC)c3)C2)C1c1ccc(Cl)cc1Cl (stereo unspecified) | 0.672

Structure (SMILES) | viability index
Cc1ccc(OCC(=O)Nc2cccc(C(=O)O)c2)c(Br)c1 | 1.18
Cc1ccc(-c2nnc(SCCCC(=O)NC(Cc3ccccc3)c3ccccc3)n2-c2cccc(Cl)c2)cc1 (stereo unspecified) | 0.488
CN1CCC(N2CCC(Oc3cccc(C(=O)NCCC4=CCCCC4)c3)CC2)CC1 | 1.02
Brc1ccc(Nc2nc(NCC3CCCO3)c3ccccc3n2)cc1 (stereo unspecified) | 0.706
COc1ccc2nc(C)cc(Nc3ccc(Oc4ccc5ccccc5c4)c(Cl)c3)c2c1 | 0.576
O=C(Nc1ccc(Cl)cc1)N1CCN(c2ccc3nncn3n2)CC1 | 0.669
CCCCCCCc1ccc(-c2nnc(-c3ccc([N+](=O)[O-])cc3)o2)cc1 | 1.09
CC(C)=CCCC1=CCC(CNCCCN(C)C)C(C)C1 (stereo unspecified) | 0.498
CCOC(=O)c1c(C)[nH]c(C)c1S(=O)(=O)N1CCCC(C(=O)N2CCN(c3cc(C)ccc3C)CC2)C1 (stereo unspecified) | 0.9
O=C(NC(=CC=Cc1ccccc1)C(=O)N1CCCCC1)c1ccc([N+](=O)[O-])cc1 | 0.866
CCN(CC)c1ccc(C=Cc2cc[n+](Cc3ccc(F)cc3)cc2)cc1 | 0.677
CCCOC(=O)C1=C(C)NC2=C(C(=O)CC(c3ccc(OC)c(OC)c3)C2)C1c1cccc([N+](=O)[O-])c1 (stereo unspecified) | 1.2
COc1cccc(NC(=O)c2ccc(NCCCN3CCC(C)CC3)c([N+](=O)[O-])c2)c1 | 1.07
CCN(CC)c1ccc(C=NNC(=O)c2ccc(Nc3nc(-c4ccccc4)cs3)cc2)c(O)c1 | 0.675
Cc1ccc(C)c(Nc2nc3c(s2)CCCC3)c1 | 0.682
Cn1cc(C(c2cccs2)c2cn(C)c3ccccc23)c2ccccc21 | 1.05
COc1ccc(-c2cc(C3CCN(c4nc(N)c5cc(OC)c(OC)cc5n4)CC3)n[nH]2)cc1OC | 1.17
CCOC(=O)C1=C(C)NC2=C(C(=O)CC(c3ccc(OC)c(OC)c3)C2)C1c1cccc(Br)c1 (stereo unspecified) | 0.927
O=C(COc1cccc(Cl)c1)Nc1nccs1 | 0.95
Cc1ccc(NC(=O)C2CSC(c3cccc(F)c3)N2C(=O)c2ccc(C(C)(C)C)cc2)cc1 (stereo unspecified) | 0.673
CCN1C(=Cc2cccc[n+]2C)Sc2ccc(C)cc21 | 1.16
CC(=O)c1cc(CN2CCC(C(=O)Nc3ccc(-n4nc(C)cc4C)cc3)CC2)cs1 | 0.76

Structure (SMILES) | viability index
N#Cc1c(NC(=O)COc2ccc(F)cc2F)sc2c1CCC2 | 1.23
CCOC(=O)C1=C(C)NC2=C(C(=O)C(C(=O)OCC)C(c3cccc(OC)c3)C2)C1c1ccc(Br)cc1 (stereo unspecified) | 1.12
Cc1ccc(C=C2SC(=Nc3ccccc3)NC2=O)c(C)c1 | 0.532
Cc1c(C#N)c2ccccc2n1CC(=O)NCCc1ccccc1 | 0.798
COc1nccnc1NS(=O)(=O)c1ccc(NC(=O)c2cc3ccccc3oc2=O)cc1 | 0.855
COc1ccc2nc(C)cc(NN=Cc3cccc(OC)c3O)c2c1 | 0.57
COc1ccc2nc(C)cc(Nc3ccc(Oc4ccc(Br)c5ccccc45)c(Cl)c3)c2c1 | 0.422
COc1cc2cc(C(=O)Nc3ccccc3)c(N)nc2cc1OC | 0.895
Cc1ccc(Cn2c(SCc3ccc(C(=O)NCCc4ccccc4)cc3)nc3ccncc32)cc1 | 0.905
CN(C)Cc1c(O)ccc2oc(Cc3ccccc3)cc12 | 0.404
COc1cc(C2C(C(=O)OCC(C)C)=C(C)NC3=C2C(=O)CC(c2ccccc2)C3)cc(Br)c1O (stereo unspecified) | 0.819
O=[N+]([O-])c1ccc(S(=O)(=O)N2CCN(C(=S)NCCc3ccccc3)CC2)cc1 | 0.298
CC(C)C(=O)NC(Nc1cccc([N+](=O)[O-])c1)C(Cl)(Cl)Cl (stereo unspecified) | 0.91
O=C(NC(=S)Nc1ccc(NC(=O)c2cccs2)cc1)c1ccco1 | 0.677
C=CCOc1cccc(C(Nc2cccc(C)n2)c2ccc3cccnc3c2O)c1 (stereo unspecified) | 0.981
C[N+]1(CC(=O)NNc2c3ccccc3nc3ccccc23)CCOCC1 | 0.857
Cc1cccc(NC(c2ccccc2F)c2ccc3cccnc3c2O)n1 (stereo unspecified) | 1.05
OCCNc1nc(Nc2cccc(O)c2)nc2ccccc12 | 0.605
Fc1ccc(CSc2ccc3nnc(-c4cccnc4)n3n2)cc1 | 1.07
CC1=C(C(=O)OC(C)C)C(c2ccc([N+](=O)[O-])cc2)C2=C(CCCC2=O)N1 (stereo unspecified) | 0.585
CC(NCCCN(C)C)c1cc(C(C)(C)C)cc2c1CCC2(C)C (stereo unspecified) | 0.283
CCN1CCCC1CNc1ncnc2c1[nH]c1ccc(C)cc12 (stereo unspecified) | 0.713

Structure (SMILES) | viability index
c1ccc(Cn2c(N=NNc3nc4ccccc4n3Cc3ccccc3)nc3ccccc32)cc1 | 0.545
COc1ccc(C2CC(=O)C3=C(C2)NC(C)=C(C(=O)OC2CCCC2)C3c2ccccc2OC)cc1OC (stereo unspecified) | 0.753
COc1ccccc1C(=O)N1CCN(Cc2ccc3ccccc3c2)CC1 | 0.913
COc1ccccc1Nc1nc(NCc2ccccc2)c2ccccc2n1 | 0.544
O=C(Nc1c(C(=O)Nc2cccc(Cl)c2)oc2ccccc12)c1cc(-c2ccccc2O)n[nH]1 | 0.368
COc1ccc2nc(C)cc(Nc3ccc(Cl)c(Cl)c3)c2c1 | 0.634
COc1ccc(CNC(=O)CCc2cn(Cc3cc(C)ccc3C)c3ccccc23)cc1OC | 0.835
CCOc1ccc2nc3cc(NCc4ccco4)ccc3c(N)c2c1 | 0.775
Cc1ccc2ncnc(Nc3cccc(C(F)(F)F)c3)c2c1 | 0.751
CCOc1ccc(Nc2nc(N3CCCCC3)nc(N3CCCCC3)n2)cc1 | 0.695
CCCC(=O)O[C@]1(C(=O)CCl)[C@@H](C)C[C@H]2[C@@H]3CCC4=CC(=O)C=C[C@]4(C)[C@@]3(F)C(=O)C[C@@]21C | 0.246
Cc1ccc(NC(=O)CCCCC(=O)Nc2ccc(C)c(Br)c2)cc1Br | 0.996
CCOc1ccc2[nH]c(=O)c(CN(CCCN3CCOCC3)C(=S)NCCCN(CC)CC)cc2c1 | 0.814
O=C(/C=C/c1ccccn1)NCC1Cc2cc(-c3cnccn3)ccc2O1 (stereo unspecified) | 0.788
O=C(c1ccc(Cl)cc1Cl)N1CCCC(C(F)(F)F)C1 (stereo unspecified) | 0.872
CCCCCc1c(C)c(C#N)c2nc3ccccc3n2c1NCCN(CC)CC | 0.961
Cc1cc(Nc2ccc(I)cc2)n2ncnc2n1 | 0.888
CCC1=NN2C(=N)/C(=C/c3ccc(OCCOc4ccc(Br)cc4)c(OC)c3)C(=O)N=C2S1 | 0.751
COc1ccccc1N1CCN(C2CCN(C3CCC(c4ccccc4)CC3)CC2)CC1 (stereo unspecified) | 0.892
CC(=O)N(C=C1Sc2ccccc2C1=O)c1ccc(C)cc1 | 0.785
